In PubChem BioAssay AID894 (National Center for Advancing Translational Sciences (NCATS), 2007):
The campaign covered roughly 150,000 compounds. About 6,500 (4.3%) were called active. This list was built around the results that the source calls inconclusive (neither active nor inactive); the mix of calls is not that of the screen. The call rests on the fitted dose curve; in most records, active means well fitted inhibition curve with a large enough effect (not every such curve was filed as active); inconclusive means small, poorly fitted or top-dose-only effect, or another doubt; inactive means no such curve, though single readings can be large or run the other way. A potency beside an inconclusive call is a rough fit, not a confirmed value.

molecular target: 15-hydroxyprostaglandin dehydrogenase [NAD(+)] (Homo sapiens) (UniProt P15428); experiment: qHTS Assay for Inhibitors of HPGD (15-Hydroxyprostaglandin Dehydrogenase); details: purified HPGD, NADH fluorescence kinetic, PGE2 substrate; activity change, negative = inhibition: stronger effect = lower value
Chain of UniProt P15428 (P15428 whole entry, looked up): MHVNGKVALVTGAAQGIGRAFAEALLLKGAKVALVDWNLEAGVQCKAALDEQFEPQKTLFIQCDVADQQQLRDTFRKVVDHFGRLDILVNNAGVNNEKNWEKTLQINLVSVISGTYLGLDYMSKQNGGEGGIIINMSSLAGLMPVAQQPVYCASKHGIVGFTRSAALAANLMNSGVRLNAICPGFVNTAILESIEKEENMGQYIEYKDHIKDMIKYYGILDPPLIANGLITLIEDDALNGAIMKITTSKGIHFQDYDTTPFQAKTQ
Procedure, shortened: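 NADH formation kinetics: reaction with 30 uM PGE2 and 1 mM NAD+ (final), 20 nM enzyme, Tris-HCl pH 8 with Tween 20, after 15 min compound preincubation at room temperature. Fluorescence change, last versus first of five reads.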
On the % scale 0 is the no-effect control and ±100 the full control effect; potency means the concentration at half of the fitted maximal effect; tags describe the fitted curve by direction and shape.

Potency, active:
CCCOc1ccc(OCCSc2ncccn2)cc1 14.1 µM, N#CCc1ccccc1[N+](=O)[O-] 8.91 µM, c1ccc2c(CSc3nnc(-c4ccncc4)o3)cccc2c1 25.1 µM, O=C(Cc1coc2ccc3ccccc3c12)N1CCCC1 12.6 µM, COc1ccc(C(=O)/C=C/c2ccc(OC3CSC3)cc2)cc1OC 14.1 µM, Cc1cc(Cl)ccc1OCc1n[nH]c(=S)n1C1CCCCC1 5.01 µM

Potency, inconclusive:
OC[C@@H]1[C@@H](c2ccccc2)C(c2ccccc2)=NN1c1ccccc1 35.5 µM [inhibitor, partial curve], Cc1ccc(-c2[nH]n3c(=O)c4c(nc3c2C)CCCC4)cc1 31.6 µM [inhibitor, partial curve], CC1CCCN(S(=O)(=O)c2ccc(C(=O)Nc3ccccc3-c3nc4ccccc4[nH]3)cc2)C1 (stereo not given) 35.5 µM [inhibitor, single point], COc1c(N2CCNC(C)C2)c(F)cc2c(=O)c(C(=O)O)cn(C3CC3)c12 (stereo not given) 28.2 µM [inhibitor, partial curve], CCNc1nnc(-c2ccncc2)s1 31.6 µM [inhibitor, partial curve], O=C(CON=C1c2ccccc2-c2ccccc21)NC12CC3CC(CC(C3)C1)C2 22.4 µM [inhibitor, single point], Cc1ccc(S(=O)(=O)Nc2ccc(-c3nc4cc(NS(=O)(=O)c5ccc(C)cc5)ccc4o3)cc2)cc1 15.8 µM [inhibitor, partial curve], COC(=O)C1Cc2c([nH]c3ccccc23)CN1 (stereo not given) 35.5 µM [inhibitor, single point], O=C(Nc1cccc(Cl)c1)c1csc(-c2ccccc2)n1 28.2 µM [inhibitor, partial curve, poor fit], CC(OC(=O)c1snc(C(=O)NC2CCCCC2)c1N)C(=O)NC(C)(C)C (stereo not given) 15.8 µM [inhibitor, partial curve, poor fit], COc1ccc(C2CC(c3ccccc3)=NN2C(=O)CSc2ncccn2)cc1 (stereo not given) 28.2 µM [inhibitor, partial curve], CCOC(=O)Nc1ccc(NCc2ccc(F)cc2)nc1N 35.5 µM [inhibitor, single point], O=c1cnc2cnc(N3CCOCC3)nc2n1C[C@H]1CCCO1 28.2 µM [inhibitor, partial curve], COc1ccc2c(c1)C(c1ccccc1C)CC(=O)O2 (stereo not given) 28.2 µM [inhibitor, partial curve, poor fit], O=C(Nc1ccc(-c2nnc(-c3ccco3)o2)cc1)C(c1ccccc1)c1ccccc1 8.91 µM [inhibitor, partial curve], COc1ccc(N(CC(=O)N/N=C/c2cccc3c2OCCO3)S(=O)(=O)c2ccc(NC(C)=O)cc2)cc1 31.6 µM [inhibitor, partial curve], CC(C)Nc1nnc(SCC(=O)/C=C2\N(C)c3ccccc3C2(C)C)s1 31.6 µM [inhibitor, partial curve], C=CCn1c(-c2cccc(Cl)c2)n[nH]c1=S 25.1 µM [inhibitor, partial curve], COCCNC(=O)c1ccc(NS(=O)(=O)c2cc(C)ccc2C)cc1 20 µM [inhibitor, partial curve], CCOC(=O)CSc1nc2ccccc2n2cnnc12 35.5 µM [inhibitor, partial curve], CCCn1c(SCC(=O)Nc2nnc(-c3ccccc3)s2)nnc1-c1ccccn1 17.8 µM [inhibitor, partial curve], Cc1sc2ncnc(N(C)Cc3ccco3)c2c1C 11.2 µM [inhibitor, partial curve], CCOc1ccccc1NC(=O)c1ccc(Cl)c(NC(=O)CC(c2ccccc2)c2ccccc2)c1 31.6 µM [inhibitor, single point], COc1ccc(CC(=O)Nc2cccc(-c3cn4ccccc4n3)c2)cc1 28.2 µM [inhibitor, partial curve], CC(C)(C)C(=O)Oc1ccc2cc(-c3ccc4ccccc4n3)c(=O)oc2c1 28.2 µM [inhibitor, partial curve], Cc1c(C)c2ccc(OCc3ccc(C(=O)O)o3)c(C)c2oc1=O 28.2 µM [inhibitor, partial curve], O=C(COC(=O)c1cccc2ccccc12)Nc1cccnc1Cl 31.6 µM [inhibitor, partial curve]

Activity change, negative = inhibition, inactive:
COc1ccc(C(=O)O/N=C/c2c(C(F)(F)F)nn(C)c2SCc2ccccc2Cl)cc1 -14.5%, CCOC(=O)c1[nH]c2c(c1C)C(=O)CC(c1ccc(OCC)c(OC)c1)C2 (stereo not given) -3.02%, c1ccc2c(c1)OCCOCCOCCOCCOCCOc1ccccc1OCCOCCOCCO2 -3.18%, NCCC[C@@H](N)C(=O)O -7.83%, C[C@@]1(O)CCOC(=O)C1 -0.872%, CC1(c2ccc(Cl)c(Cl)c2)NC(=S)N2C1NC(=S)N2c1ccccc1 (stereo not given) -2.56%, COc1cccc(CC(=O)Nc2nccs2)c1 -15.9%, COC(=O)N1[C@H](Cc2ccccc2)C=C[C@]1(C)C(=O)NCc1ccc(N(C)C)cc1 -7.99%, CCC(C)(C(=O)NC1CCCCC1)N(C)C(=O)c1ccccn1 (stereo not given) -5.49%, COC(=O)C1=C(C)N(C)C(=O)/C1=C\c1ccco1 -9.35%, O=C(NC1CCCC1)c1cnn2c(C(F)(F)F)cc(-c3ccc4c(c3)OCO4)nc12 -15%, COc1ccc(N2CCCn3c2nc2c3c(=O)n(CCc3ccccc3)c(=O)n2C)cc1 -18.6%
